About 9,900 (2.8%) of roughly 350,000 compounds were called active. The shares of active, inactive and inconclusive entries below differ from those in the screen. Calls follow the shape of the dose curve; as a rule, active = well fitted activation curve with a large enough effect; inconclusive = small, poorly fitted or top-dose-only effect; inactive = no such curve, though single readings can be large or run the other way. No potency is given beside an inconclusive call; the fits are too rough.
Assay: A quantitative high throughput screen for small molecules that induce DNA re-replication in MCF 10a normal breast cells. Also: nearly all actives have a fitted effect of over 50% in size. As to activity, positive = re-replication: % of control where 0% means no effect.
Details: MCF 10A DNA re-replication, Hoechst nuclear intensity, 48 h; activity, positive = re-replication: at 46.1 µM (top of the series)
Potency is read from the fitted curve at half-maximal effect; tags tell the direction and shape of the fitted curve.

Question: For `COc1ccc(S(=O)(=O)N(C)C(C)CCc2ccco2)cc1` (centres undefined), which Potency is on record?
Answer: inconclusive [activator, single point]

Question: With `COC(=O)C(C)(C(=O)OC)c1ccc([N+](=O)[O-])cn1` as the compound, how does the activity, positive = re-replication read?
Answer: inactive: -179% [at 0.0737 µM]

Question: Which Potency does the source give for `O=c1oc2c3c4c(cc2c2c1CCC2)OCCN4CCC3` here?
Answer: inconclusive [activator, partial curve, poor fit]

Question: Which Potency does the source give for `CC1CCN(C(=S)NC(=O)c2cccc([N+](=O)[O-])c2)CC1` here?
Answer: inconclusive [activator, single point]

Question: With `CC(C)Nc1nc(NC(C)C)nc(SCCOC(=O)Nc2ccc(Cl)cc2Cl)n1` as the compound, how does the Potency read?
Answer: inconclusive [activator, partial curve]

Question: Which Potency does the source give for `CC(=O)N1c2ccc(S(=O)(=O)N(C)CC(=O)NC3CCCC3)cc2CC1C` (centres undefined) here?
Answer: inactive

Question: For `COc1c(CC=C(C)C)cc(C2CC(=O)c3c(O)cc(O)cc3O2)cc1CC=C(C)C` (centres undefined), which Potency is on record?
Answer: inconclusive [activator, single point]

Question: For `CCc1ccc(-c2nc(CN3CCCC(C(=O)NCCc4ccc(OC)c(OC)c4)C3)c(C)o2)cc1` (centres undefined), which Potency is on record?
Answer: inconclusive [activator, partial curve, poor fit]

Question: Which Potency does the source give for `COc1cccc(NC(=O)c2ccc(CN3CCc4ccccc4C3)cc2)c1` here?
Answer: inconclusive [activator, single point]

Question: Which Potency does the source give for `CCN1CCN(c2ccccc2NC(=O)c2ccc(-n3cccn3)cc2)CC1` here?
Answer: inactive

Question: With `CCN(CC)CCNC(C(=O)Nc1cc(C(F)(F)F)ccc1Cl)c1ccccc1` (centres undefined) as the compound, how does the Potency read?
Answer: inconclusive [activator, single point]

Question: With `Cc1cc2c(cc1C)CSC(c1c(O)ccc3ccccc13)SC2` as the compound, how does the Potency read?
Answer: active: 18.4 µM

Question: For `COc1ccc2c(c1)CCc1c(C(=O)N3CCCCCC3)noc1-2`, which Potency is on record?
Answer: inconclusive [activator, single point]

Question: Which Potency does the source give for `Cn1nc(C(F)(F)F)c(C#N)c1N1CCN(c2ccccn2)CC1` here?
Answer: inactive

Question: With `CCOC(=O)N1CCN(C(=O)CSCc2ccc(C)cc2)CC1` as the compound, how does the Potency read?
Answer: inactive

Question: For `COc1cc(/C=C/C(=O)OCC(=O)NCc2ccco2)ccc1O`, which Potency is on record?
Answer: inconclusive [activator, single point]

Question: Which Potency does the source give for `N#Cc1c2c(c(Nc3ccc(F)cc3)n3c1nc1ccccc13)CCCC2` here?
Answer: inconclusive [activator, full curve, poor fit]

Question: For `O=C1N[C@@H](c2ccccc2)COC(=O)[C@H](Cc2ccc(F)cc2)C/C=C\C[C@@H]1CC(=O)N(CCO)Cc1ccccc1`, which Potency is on record?
Answer: inconclusive [activator, single point]

Question: Which Potency does the source give for `Cc1oc(-c2ccccc2F)nc1CS(=O)(=O)CC(=O)NCCCN1CCN(C)CC1` here?
Answer: inconclusive [activator, single point]

Question: With `O=C(NCCCN1CCOCC1)c1ccc(-n2nc(C(F)(F)F)cc2-c2cccs2)cc1` as the compound, how does the Potency read?
Answer: inconclusive [activator, partial curve, poor fit]

Question: Which Potency does the source give for `COC(=O)C1=C(C)NC(C)=C(C(=O)OC)C1c1ccc(-c2cccc(Cl)c2Cl)o1` here?
Answer: inconclusive [activator, partial curve, poor fit]

Question: For `Cc1ccc(C(=O)COc2nc(C)cc(C)c2C#N)cc1`, which Potency is on record?
Answer: inconclusive [activator, single point]

Question: With `O=C(c1ccccc1Cc1ccccc1)N1CCN(S(=O)(=O)c2ccccc2F)CC1` as the compound, how does the Potency read?
Answer: inconclusive [activator, partial curve, poor fit]

Question: Which activity, positive = re-replication does the source give for `COc1cc(C(=O)N(Cc2cccc(Cl)c2)C2CCS(=O)(=O)C2)cc(OC)c1OC` (centres undefined) here?
Answer: inactive: -178% [at 0.0737 µM]

Question: Which Potency does the source give for `CC1CCCCN1CC(=O)Nc1ccc(N2CCCCCC2)cc1` (centres undefined) here?
Answer: inconclusive [activator, single point]

Question: Which Potency does the source give for `COCCNC(=S)Nc1ccc(Cl)c(Cl)c1` here?
Answer: inactive

Question: For `Cc1cccc(OCc2cc(-c3ccccc3)no2)c1C`, which Potency is on record?
Answer: inactive

Question: With `COc1ccc(/C=N/NC(=O)c2ccncc2)cc1OC` as the compound, how does the Potency read?
Answer: inactive

Question: Which Potency does the source give for `[O-][n+]1cccc2c(Br)cc(Br)c(O)c21` here?
Answer: inconclusive [activator, single point]

Question: For `CCC1(CC(C)C)SC(N)=NC1=O` (centres undefined), which Potency is on record?
Answer: inactive

Question: For `CCOc1ccc(NS(=O)(=O)c2ccc(C(=O)NNC(=O)c3ccccc3O)cc2)cc1`, which Potency is on record?
Answer: inconclusive [activator, single point]

Question: Which Potency does the source give for `COc1ccccc1CNC(=O)COc1cc2c(c3oc(=O)cc(C)c13)CCC(C)(C)O2` here?
Answer: inconclusive [activator, partial curve, poor fit]

Question: For `N#C/C(=C\c1ccc(-c2ccccc2[N+](=O)[O-])o1)C(=O)Nc1nc(-c2cccs2)cs1`, which Potency is on record?
Answer: inconclusive [activator, full curve, poor fit]

Question: Which Potency does the source give for `CCCCNCCOCCOc1ccc(Cl)cc1Br` here?
Answer: inconclusive [activator, partial curve, poor fit]

Question: With `COC(=O)C1=C(C)NC(=O)NC1c1ccc(-c2ccccc2Cl)o1` (centres undefined) as the compound, how does the Potency read?
Answer: inconclusive [activator, single point]

Question: For `O=C(CN1CCCCCC1)Nc1ccc([N+](=O)[O-])cc1Br`, which Potency is on record?
Answer: inconclusive [activator, single point]

Question: For `CCN1CCN(S(=O)(=O)c2ccc(Cl)c(C(=O)NCCc3ccccc3)c2)CC1`, which Potency is on record?
Answer: inactive

Question: With `O=C(Nc1ccccc1N1CCCCC1)c1cc(S(=O)(=O)N2CCOCC2)ccc1F` as the compound, how does the Potency read?
Answer: active: 11.6 µM

Question: With `CC1=[N+](C)c2c(ccc3cccnc23)C1(C)C` as the compound, how does the Potency read?
Answer: inconclusive [activator, partial curve, poor fit]

Question: For `C/C(=N\NC(=O)c1ccc(NS(=O)(=O)c2cccs2)cc1)c1cccs1`, which Potency is on record?
Answer: inactive

Question: Which Potency does the source give for `CCOC(=O)C1(C(N)=O)OC1(c1ccc(Cl)cc1)c1ccccc1Cl` (centres undefined) here?
Answer: inactive

Question: For `COc1ccccc1N=Nc1c(C)[nH]n(-c2ccccc2)c1=O`, which Potency is on record?
Answer: inconclusive [activator, partial curve, poor fit]

Question: With `CC(=O)Nc1ccc(NS(=O)(=O)c2ccc(-c3cnc(C4CC4)o3)cc2)cc1` as the compound, how does the Potency read?
Answer: inactive

Question: With `Cc1ccc(NC(=O)c2nnn(CC(=O)Nc3ccccc3)c2N)cc1C` as the compound, how does the Potency read?
Answer: inconclusive [activator, full curve]

Question: Which Potency does the source give for `N/C(=N\S(=O)(=O)c1cc(C(F)(F)F)cc(C(F)(F)F)c1)c1ccccc1` here?
Answer: inconclusive [activator, partial curve, poor fit]

Question: For `Cc1ccc(NC(=O)C(OC(=O)c2ccc(NC(N)=O)cc2)c2ccccc2)cc1Cl` (centres undefined), which Potency is on record?
Answer: inconclusive [activator, single point]

Question: With `Cc1ccc(NC2=Nc3ccccc3CC2)cc1` as the compound, how does the Potency read?
Answer: inconclusive [activator, partial curve, poor fit]

Question: Which Potency does the source give for `Cc1ccc2nc(NC(=O)c3cc(-c4ccco4)nc4ccccc34)sc2c1` here?
Answer: active: 16.4 µM

Question: With `COC(=O)c1cc(C(=O)OC)cc(-n2c(C)cc(C=O)c2C)c1` as the compound, how does the Potency read?
Answer: inactive

Question: Which Potency does the source give for `Cn1ncc2c(O/N=C(\N)c3ccc(C(C)(C)C)cc3)ncnc21` here?
Answer: active: 18.4 µM

Question: For `COc1ccccc1CNC(=O)c1ccc(-c2ccccc2C(F)(F)F)o1`, which Potency is on record?
Answer: active: 14.6 µM

Question: For `Cc1ccc(OCC(O)CN2CCN(Cc3ccc4c(c3)OCO4)CC2)cc1C` (centres undefined), which Potency is on record?
Answer: inconclusive [activator, partial curve]

Question: For `CC(=O)N1c2ccc(S(=O)(=O)NCCC(=O)NCc3ccc(N(C)C)cc3)cc2CC1C` (centres undefined), which Potency is on record?
Answer: inconclusive [activator, single point]

Question: With `COc1cc(C(=O)NCCOc2ccc(Cl)cc2)ccc1OCc1c(C)noc1C` as the compound, how does the Potency read?
Answer: inconclusive [activator, full curve, poor fit]

Question: Which Potency does the source give for `COc1ccc(Cl)cc1NC(=O)CSc1nc(Nc2ccccc2)nc(N2CCOCC2)n1` here?
Answer: inactive

Question: With `Oc1ccc(C=Nc2ccc(N3CCOCC3)cc2)c(O)c1` as the compound, how does the Potency read?
Answer: inconclusive [activator, partial curve, poor fit]

Question: For `Cc1ccc(S(=O)(=O)n2ccc3c(OCCOCCNCc4ccc(F)cc4)cccc32)cc1`, which Potency is on record?
Answer: inconclusive [activator, single point]

Question: Which Potency does the source give for `COc1ccc(Cc2nnc(NC(=O)c3cc(OC)cc(OC)c3)s2)cc1` here?
Answer: active: 13 µM

Question: For `O=C(Nc1nccs1)c1cn(-c2ccccc2)nc1-c1ccccc1`, which Potency is on record?
Answer: inactive

Question: For `CC(=O)c1nn(-c2ccccc2)cc1C(=O)c1cccc(Br)c1`, which Potency is on record?
Answer: active: 1.64 µM

Question: With `O=C1c2ccccc2C(=O)N1CC#CCN1CCN(C(c2ccccc2)c2ccccc2)CC1` as the compound, how does the Potency read?
Answer: inconclusive [activator, full curve, poor fit]

Question: With `Cc1cccc(/C=N/NC(=O)c2cc3c(s2)-c2ccccc2CC3)c1` as the compound, how does the activity, positive = re-replication read?
Answer: inconclusive: 122% [activator]

Question: Which Potency does the source give for `COc1ccc(C(NC(=O)C2CCCCC2)c2c(O)ccc3ccccc23)cc1` (centres undefined) here?
Answer: inconclusive [activator, single point]

Question: For `O=C(NCCC1CCCCN1S(=O)(=O)c1cccs1)C(=O)Nc1ccc(F)cc1` (centres undefined), which Potency is on record?
Answer: inconclusive [activator, single point]

Question: Which Potency does the source give for `Cc1ccc(NC(=O)OCc2cc(-c3ccccc3)on2)cc1` here?
Answer: inconclusive [activator, single point]

Question: With `CC#CC#Cc1cccc(=O)o1` as the compound, how does the Potency read?
Answer: active: 18.4 µM

Question: For `O=C1c2ccccc2C(=O)c2[nH]c(=O)[nH]c21`, which Potency is on record?
Answer: inconclusive [activator, partial curve, poor fit]

Question: Which Potency does the source give for `O=[N+]([O-])c1cccc(S(=O)(=O)N2CCCCC2)c1` here?
Answer: inactive

Question: Which Potency does the source give for `O=C(NC1CCN(Cc2ccccc2)CC1)c1ccccc1` here?
Answer: inactive
